Residue numbers refer to the chain shown, from its start. These are yes or no findings as the source states them, for the method shown. For some assays here: In cells and extracts the contact can be indirect. Some binding calls cover weakened binding; strength is not graded here.

The target of assay [1] is T1, Abl2 Src homology 2 (SH2) domain (UniProt Q4JIM5).
T1 sequence: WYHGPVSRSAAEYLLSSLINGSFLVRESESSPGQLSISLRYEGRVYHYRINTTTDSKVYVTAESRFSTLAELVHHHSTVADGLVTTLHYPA
Nature of the assay: pull-down; Abl2 SH2 domain covalently coupled to AminoLink agarose beads (1 μM) incubated overnight with 500 μg HEK293 lysate (RIPA buffer) expressing PDGFRβ, cells serum starved and stimulated with PDGF-BB for 10 min or mock treated; bound material immunoblotted for PDGFRβ; only the target …. A general note: A western blot detects proteins with antibodies after separation by electrophoresis.

Assay [2] concerns the target T1, Abl2 Src homology 2 (SH2) domain. Kind of assay: pull-down; Abl2 SH2 covalently linked to AminoLink beads, 1 μM; 0 to 2 μM PDGFRβ CD; 1 h at 4 °C; 50 mM Hepes pH 7.25, 150 mM NaCl, 5% glycerol, 1 mM DTT; SDS-PAGE, Coomassie densitometry, one-site specific binding fit; both purified.
The target in assay [3] is T2, Abl2 SH2 domain R198K (phosphotyrosine-binding defective mutant) (UniProt Q4JIM5).
T2 sequence: T1 sequence with R26K
The assay is described as above.

Assay [4] concerns the target Abl2-HA (hemagglutinin tag), WT (UniProt Q4JIM5). Kind of assay: co-IP; Abl2-HA immunoprecipitated with anti-HA (12CA5) from 0.5 mg lysate (Triton lysis buffer) of HEK293 cells co-expressing PDGFRβ, serum starved and stimulated with PDGF-BB; blotted for PDGFRβ.

“PDGFRβ Y716F, full length (from UniProt P09619 33-1106) (receptor)”: the binding entry in assay [1] is recorded as “binds”. Regarding “autophosphorylated PDGFRβ CD (Y771F) (from UniProt P09619 554-1106) (domain or fragment)”, the binding entry in assay [2] is “binds weakly”. As to “autophosphorylated PDGFRβ cytoplasmic domain (CD) (from UniProt P09619 554-1106) (domain or fragment)”, in assay [3], the binding result is recorded as “no binding (tested: 0 to 2 μM)”. For the substance “kinase-inactive PDGFRβ point mutant (K634R), full length (from UniProt P09619 33-1106) (receptor)”, the binding result in assay [1] and in assay [4] was “no binding” throughout.

The record behind these values is PMC8259415.
